{
  "source": "paper PMC9911399",
  "about": "“Two distinct binding modes provide the RNA-binding protein RbFox with extraordinary sequence specificity”",
  "binders": {"B1": {"name": "GAUGACU (DNA:RNA)", "RNA": "GGGAGACCGGAAUUCAGAUUGUCCGAUGACUUUAAAUCCCGUCGUAGCCACCA", "DNA 1": "CAATCTGAATTCCGGTCTCCC", "DNA 2": "TGGTGGCTACGACGGGATT"}, "B2": {"name": "GCCUUAU (DNA:RNA)", "RNA": "B1 RNA with A26C, U27C, G28U, A29U, C30A", "DNA 1": "CAATCTGAATTCCGGTCTCCC", "DNA 2": "TGGTGGCTACGACGGGATT"}, "B3": {"name": "GGAACCU (DNA:RNA)", "RNA": "B1 RNA with A26G, U27A, G28A, A29C", "DNA 1": "CAATCTGAATTCCGGTCTCCC", "DNA 2": "TGGTGGCTACGACGGGATT"}, "B4": {"name": "CCCCAGU (DNA:RNA)", "RNA": "B1 RNA with G25C, A26C, U27C, G28C, C30G", "DNA 1": "CAATCTGAATTCCGGTCTCCC", "DNA 2": "TGGTGGCTACGACGGGATT"}, "B5": {"name": "ACGCCUG (DNA:RNA)", "RNA": "GGGAGACCGGAAUUCAGAUUGUCCACGCCUGUUAAAUCCCGUCGUAGCCACCA", "DNA 1": "CAATCTGAATTCCGGTCTCCC", "DNA 2": "TGGTGGCTACGACGGGATT"}, "B6": {"name": "UCUAAGA (DNA:RNA)", "RNA": "B1 RNA with G25U, A26C, G28A, C30G, U31A", "DNA 1": "CAATCTGAATTCCGGTCTCCC", "DNA 2": "TGGTGGCTACGACGGGATT"}, "B7": {"name": "AGACCUC (DNA:RNA)", "RNA": "B5 RNA with C26G, G27A, G31C", "DNA 1": "CAATCTGAATTCCGGTCTCCC", "DNA 2": "TGGTGGCTACGACGGGATT"}, "B8": {"name": "AUAUCUA (DNA:RNA)", "RNA": "B5 RNA with C26U, G27A, C28U, G31A", "DNA 1": "CAATCTGAATTCCGGTCTCCC", "DNA 2": "TGGTGGCTACGACGGGATT"}, "B9": {"name": "CUGCGGU (DNA:RNA)", "RNA": "B5 RNA with A25C, C26U, C29G, U30G, G31U", "DNA 1": "CAATCTGAATTCCGGTCTCCC", "DNA 2": "TGGTGGCTACGACGGGATT"}, "B10": {"name": "CUCAGGG (DNA:RNA)", "RNA": "B5 RNA with A25C, C26U, G27C, C28A, C29G, U30G", "DNA 1": "CAATCTGAATTCCGGTCTCCC", "DNA 2": "TGGTGGCTACGACGGGATT"}, "B11": {"name": "CCGUAUC (DNA:RNA)", "RNA": "B5 RNA with A25C, C28U, C29A, G31C", "DNA 1": "CAATCTGAATTCCGGTCTCCC", "DNA 2": "TGGTGGCTACGACGGGATT"}, "B12": {"name": "UGAGUUA (DNA:RNA)", "RNA": "B5 RNA with A25U, C26G, G27A, C28G, C29U, G31A", "DNA 1": "CAATCTGAATTCCGGTCTCCC", "DNA 2": "TGGTGGCTACGACGGGATT"}, "B13": {"name": "UUCAAAG (DNA:RNA)", "RNA": "B5 RNA with A25U, C26U, G27C, C28A, C29A, U30A", "DNA 1": "CAATCTGAATTCCGGTCTCCC", "DNA 2": "TGGTGGCTACGACGGGATT"}, "B14": {"name": "UCGUCGG (DNA:RNA)", "RNA": "B5 RNA with A25U, C28U, U30G", "DNA 1": "CAATCTGAATTCCGGTCTCCC", "DNA 2": "TGGTGGCTACGACGGGATT"}, "B15": {"name": "AACCGGC (DNA:RNA)", "RNA": "B5 RNA with C26A, G27C, C29G, U30G, G31C", "DNA 1": "CAATCTGAATTCCGGTCTCCC", "DNA 2": "TGGTGGCTACGACGGGATT"}, "B16": {"name": "UGCAACG (DNA:RNA)", "RNA": "B1 RNA with G25U, A26G, U27C, G28A, U31G", "DNA 1": "CAATCTGAATTCCGGTCTCCC", "DNA 2": "TGGTGGCTACGACGGGATT"}, "B17": {"name": "GUGUUGG (DNA:RNA)", "RNA": "B5 RNA with A25G, C26U, C28U, C29U, U30G", "DNA 1": "CAATCTGAATTCCGGTCTCCC", "DNA 2": "TGGTGGCTACGACGGGATT"}, "B18": {"name": "CUCGUAA (DNA:RNA)", "RNA": "B1 RNA with G25C, A26U, U27C, A29U, C30A, U31A", "DNA 1": "CAATCTGAATTCCGGTCTCCC", "DNA 2": "TGGTGGCTACGACGGGATT"}, "B19": {"name": "CACUCAU (DNA:RNA)", "RNA": "B1 RNA with G25C, U27C, G28U, A29C, C30A", "DNA 1": "CAATCTGAATTCCGGTCTCCC", "DNA 2": "TGGTGGCTACGACGGGATT"}, "B20": {"name": "UGUAUAC (DNA:RNA)", "RNA": "B1 RNA with G25U, A26G, G28A, A29U, C30A, U31C", "DNA 1": "CAATCTGAATTCCGGTCTCCC", "DNA 2": "TGGTGGCTACGACGGGATT"}, "B21": {"name": "UUAACAG (DNA:RNA)", "RNA": "B5 RNA with A25U, C26U, G27A, C28A, U30A", "DNA 1": "CAATCTGAATTCCGGTCTCCC", "DNA 2": "TGGTGGCTACGACGGGATT"}, "B22": {"name": "ACAGGAC (DNA:RNA)", "RNA": "B5 RNA with G27A, C28G, C29G, U30A, G31C", "DNA 1": "CAATCTGAATTCCGGTCTCCC", "DNA 2": "TGGTGGCTACGACGGGATT"}, "B23": {"name": "CUCCCGA (DNA:RNA)", "RNA": "B5 RNA with A25C, C26U, G27C, U30G, G31A", "DNA 1": "CAATCTGAATTCCGGTCTCCC", "DNA 2": "TGGTGGCTACGACGGGATT"}, "B24": {"name": "AUUCUUG (DNA:RNA)", "RNA": "B5 RNA with C26U, G27U, C29U", "DNA 1": "CAATCTGAATTCCGGTCTCCC", "DNA 2": "TGGTGGCTACGACGGGATT"}, "B25": {"name": "GUUAGAU (DNA:RNA)", "RNA": "B1 RNA with A26U, G28A, A29G, C30A", "DNA 1": "CAATCTGAATTCCGGTCTCCC", "DNA 2": "TGGTGGCTACGACGGGATT"}, "B26": {"name": "CAACAUU (DNA:RNA)", "RNA": "B1 RNA with G25C, U27A, G28C, C30U", "DNA 1": "CAATCTGAATTCCGGTCTCCC", "DNA 2": "TGGTGGCTACGACGGGATT"}, "B27": {"name": "UAUCGAC (DNA:RNA)", "RNA": "B1 RNA with G25U, G28C, A29G, C30A, U31C", "DNA 1": "CAATCTGAATTCCGGTCTCCC", "DNA 2": "TGGTGGCTACGACGGGATT"}, "B28": {"name": "AUGGGGA (DNA:RNA)", "RNA": "B5 RNA with C26U, C28G, C29G, U30G, G31A", "DNA 1": "CAATCTGAATTCCGGTCTCCC", "DNA 2": "TGGTGGCTACGACGGGATT"}, "B29": {"name": "ACAAUCC (DNA:RNA)", "RNA": "B5 RNA with G27A, C28A, C29U, U30C, G31C", "DNA 1": "CAATCTGAATTCCGGTCTCCC", "DNA 2": "TGGTGGCTACGACGGGATT"}, "B30": {"name": "GGAAUGG (DNA:RNA)", "RNA": "B5 RNA with A25G, C26G, G27A, C28A, C29U, U30G", "DNA 1": "CAATCTGAATTCCGGTCTCCC", "DNA 2": "TGGTGGCTACGACGGGATT"}, "B31": {"name": "AUUCCCA (DNA:RNA)", "RNA": "B5 RNA with C26U, G27U, U30C, G31A", "DNA 1": "CAATCTGAATTCCGGTCTCCC", "DNA 2": "TGGTGGCTACGACGGGATT"}},
  "note": "Substitutions are numbered along the chain they refer to; changes in the protein carry UniProt numbers. The list shows a part of the results.",
  "data": [
    {"target": "T1, RBFOX1 RRM RbFoxmut (Fox-RRM*) (Homo sapiens, UniProt Q9NWB1 109-208, R118D;E147R;N151S;E152T)", "T1 sequence": "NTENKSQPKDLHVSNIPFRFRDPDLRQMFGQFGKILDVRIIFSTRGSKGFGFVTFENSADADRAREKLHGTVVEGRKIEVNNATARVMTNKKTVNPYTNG", "test": "EMSA; HiTS-Eq, 1 nM pool, 10 min; buffer printed only for the single-RNA assays: 10 mM Tris pH 7.5, 150 mM NaCl, 3.4 mM EDTA, 0.001% NP-40, 30 C", "conditions": "tags: His6 N-terminal (pET28a); label: 5' 32P", "outline": "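Relative association constants, normalised to the cognate motif, were derived by comparing read counts of each RNA species with those of the control reaction. The RNA sequenced was the free fraction, separated by 8% native PAGE after a 10 min equilibration in 50 µL of 1 nM 5′-radiolabelled RNA (7 randomized nucleotides) with increasing concentrations of purified wild-type or mutant RbFox RRM.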", "values": [
      {"binder": "B1", "binding signal": "0.0427 KA relative to UGCAUGU"},
      {"binder": "B2", "binding signal": "0.082 KA relative to UGCAUGU"},
      {"binder": "B3", "binding signal": "0.137 KA relative to UGCAUGU"},
      {"binder": "B4", "binding signal": "0.0863 KA relative to UGCAUGU"},
      {"binder": "B5", "binding signal": "0.124 KA relative to UGCAUGU"},
      {"binder": "B6", "binding signal": "0.0938 KA relative to UGCAUGU"},
      {"binder": "B7", "binding signal": "0.0625 KA relative to UGCAUGU"},
      {"binder": "B8", "binding signal": "0.124 KA relative to UGCAUGU"},
      {"binder": "B9", "binding signal": "0.127 KA relative to UGCAUGU"},
      {"binder": "B10", "binding signal": "0.0739 KA relative to UGCAUGU"},
      {"binder": "B11", "binding signal": "0.163 KA relative to UGCAUGU"},
      {"binder": "B12", "binding signal": "0.102 KA relative to UGCAUGU"},
      {"binder": "B13", "binding signal": "0.104 KA relative to UGCAUGU"},
      {"binder": "B14", "binding signal": "0.129 KA relative to UGCAUGU"},
      {"binder": "B15", "binding signal": "0.0987 KA relative to UGCAUGU"},
      {"binder": "B16", "binding signal": "0.107 KA relative to UGCAUGU"},
      {"binder": "B17", "binding signal": "0.108 KA relative to UGCAUGU"},
      {"binder": "B18", "binding signal": "0.136 KA relative to UGCAUGU"},
      {"binder": "B19", "binding signal": "0.112 KA relative to UGCAUGU"},
      {"binder": "B20", "binding signal": "0.114 KA relative to UGCAUGU"},
      {"binder": "B21", "binding signal": "0.0772 KA relative to UGCAUGU"},
      {"binder": "B22", "binding signal": "0.0906 KA relative to UGCAUGU"},
      {"binder": "B23", "binding signal": "0.036 KA relative to UGCAUGU"},
      {"binder": "B24", "binding signal": "0.125 KA relative to UGCAUGU"},
      {"binder": "B25", "binding signal": "0.131 KA relative to UGCAUGU"},
      {"binder": "B26", "binding signal": "0.0738 KA relative to UGCAUGU"},
      {"binder": "B27", "binding signal": "0.0663 KA relative to UGCAUGU"},
      {"binder": "B28", "binding signal": "0.12 KA relative to UGCAUGU"},
      {"binder": "B29", "binding signal": "0.0642 KA relative to UGCAUGU"},
      {"binder": "B30", "binding signal": "0.724 KA relative to UGCAUGU"},
      {"binder": "B31", "binding signal": "0.0559 KA relative to UGCAUGU"}
    ]}
  ]
}
